Whole data set: some 33,000 sequences, median “E-score (-0.5 to 0.5)” near -0.013, cut for the highest 2% near 0.3. The list shows a part of the results.
Each sequence was assayed against T1, Msn1 (UniProt P22148) (assay: PBM E-score (8-mer binding enrichment) (E-score (-0.5 to 0.5)); higher = stronger / more preferred TF binding; most listed sequences are background and not binding sites). Settings: protein concentration: 200 nM; construct: GST-full length.
T1 sequence: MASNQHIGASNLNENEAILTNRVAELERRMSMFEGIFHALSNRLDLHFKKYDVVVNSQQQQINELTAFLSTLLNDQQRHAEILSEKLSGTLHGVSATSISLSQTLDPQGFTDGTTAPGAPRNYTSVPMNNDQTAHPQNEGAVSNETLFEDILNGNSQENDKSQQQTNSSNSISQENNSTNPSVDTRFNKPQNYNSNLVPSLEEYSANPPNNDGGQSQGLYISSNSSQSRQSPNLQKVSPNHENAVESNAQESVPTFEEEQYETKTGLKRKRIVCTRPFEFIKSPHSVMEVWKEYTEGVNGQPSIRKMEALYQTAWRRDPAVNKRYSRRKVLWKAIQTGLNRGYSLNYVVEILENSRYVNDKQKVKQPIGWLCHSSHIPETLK
Protocol: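 Universal 'all 10-mer' protein binding microarrays (Agilent AMADID 015681) probed with GST-tagged S. cerevisiae TFs (full-length or DBD) made by in vitro transcription/translation (PURExpress), about 100-200 nM. Bound TF was detected with fluorescent anti-GST. Each ungapped 8-mer (which stands for itself and its reverse complement) is scored by the PBM enrichment score (E-score), a modified Wilcoxon-Mann-Whitney statistic from -0.5 to +0.5, computed with the Universal PBM Analysis Suite. Scale: above 0.35 generally sequence-specific binding.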
With CGCAGCGC the “PBM E-score” value was -0.0947. With ATTCGTCC the “PBM E-score” value was 0.323. With ATATACGA the “PBM E-score” value was 0.0731. In the case of ACATGTCT, the “PBM E-score” value was 0.436. ATAGCGAC was tested, and the “PBM E-score” value was 0.0688. For AAAGTGAG, the “PBM E-score” value was 0.149. In the case of GCGCCCAC, the “PBM E-score” value was -0.0696. For AGAGGGCA, the “PBM E-score” value was -0.197. In the case of ACGAAACT, the “PBM E-score” value was -0.0151. GCCGGGAA was tested, and the “PBM E-score” value was -0.264. With AAACGACG the “PBM E-score” value was 0.165. With AACCTAGG the “PBM E-score” value was -0.0201. GATCCTGA was tested, and the “PBM E-score” value was 0.0249. In the case of CCGAGGGC, the “PBM E-score” value was -0.116. CAGCATCC was tested, and the “PBM E-score” value was -0.166. For TACCCCCA, the “PBM E-score” value was -0.27. AGCCTTAC was tested, and the “PBM E-score” value was -0.28. CGTGCTGA was tested, and the “PBM E-score” value was -0.181. For CACCCAAG, the “PBM E-score” value was -0.175. In the case of GAGAACTA, the “PBM E-score” value was -0.0426. TCATAGCA was tested, and the “PBM E-score” value was -0.0556. In the case of CAAGATCC, the “PBM E-score” value was 0.0979. CCGACGAG was tested, and the “PBM E-score” value was 0.0312. With CGGGGCAG the “PBM E-score” value was -0.0385. For CTTGAATC, the “PBM E-score” value was -0.0517. In the case of CTGGAGGA, the “PBM E-score” value was -0.158. With TGCGGTAA the “PBM E-score” value was 0.0705. In the case of CCTATGCC, the “PBM E-score” value was -0.163. CACGGCCA was tested, and the “PBM E-score” value was -0.165. For GGAGGGGA, the “PBM E-score” value was -0.0779. With GCCAACAA the “PBM E-score” value was 6e-05. With CCAGCAAG the “PBM E-score” value was 0.0683. With ACCGGTCC the “PBM E-score” value was -0.139. With GACTAACA the “PBM E-score” value was 0.248. With CCTCTGTA the “PBM E-score” value was -0.0291. With AGCAGACC the “PBM E-score” value was -0.0268. AAGTCGTG was tested, and the “PBM E-score” value was 0.156. GAGGTAGC was tested, and the “PBM E-score” value was -0.219. For CGGTCACA, the “PBM E-score” value was 0.019. In the case of ACAAAACG, the “PBM E-score” value was 0.237. AATAGTGT was tested, and the “PBM E-score” value was 0.172. With CCTAAACA the “PBM E-score” value was 0.0191. In the case of ATATCCAA, the “PBM E-score” value was 0.103. AATTGTTC was tested, and the “PBM E-score” value was 0.245. For TAGTCTAA, the “PBM E-score” value was 0.0219. For CCGAGCGC, the “PBM E-score” value was 0.0676. With TTCTCCAA the “PBM E-score” value was -0.0782. In the case of GCAAGGCC, the “PBM E-score” value was -0.22. In the case of CGCTAACG, the “PBM E-score” value was 0.13. In the case of GCAAGTAC, the “PBM E-score” value was 0.0709. In the case of AATCGATC, the “PBM E-score” value was 0.063. In the case of GAAAGGGC, the “PBM E-score” value was -0.141. For AAGACAAG, the “PBM E-score” value was 0.343. In the case of CGTGGGTA, the “PBM E-score” value was -0.124. With CTTGTCAC the “PBM E-score” value was 0.296. AGATGTGG was tested, and the “PBM E-score” value was 0.0384. With AGCATGAC the “PBM E-score” value was -0.217. For CTGAGTCC, the “PBM E-score” value was 0.125. For CACACTGA, the “PBM E-score” value was -6e-05. GTCGCCCA was tested, and the “PBM E-score” value was -0.147. In the case of ATATAGGG, the “PBM E-score” value was -0.167. For AACCCGCC, the “PBM E-score” value was -0.177. With GGGAGACC the “PBM E-score” value was -0.362. GTGATGTA was tested, and the “PBM E-score” value was 0.182. For GTACAGAA, the “PBM E-score” value was 0.105. For CTCACGCC, the “PBM E-score” value was -0.209. In the case of GGTTAAAA, the “PBM E-score” value was 0.047. In the case of TGCCTTAA, the “PBM E-score” value was -0.283. In the case of CTACTACC, the “PBM E-score” value was -0.0077. For ACACGTAA, the “PBM E-score” value was 0.0612. For GCAGAGAA, the “PBM E-score” value was 0.0322. For GCCGGTCC, the “PBM E-score” value was -0.233. In the case of CGGCTCAC, the “PBM E-score” value was -0.118. With AATGGAAA the “PBM E-score” value was -0.0531. For CCGGGGAA, the “PBM E-score” value was -0.149. With CGCGAGCC the “PBM E-score” value was 0.057. In the case of AAGGGCAT, the “PBM E-score” value was -0.00892. In the case of GTCTCAAC, the “PBM E-score” value was 0.136. For AGTCCGAT, the “PBM E-score” value was 0.224. AATCACAA was tested, and the “PBM E-score” value was -0.159. GATTATAA was tested, and the “PBM E-score” value was 0.116. In the case of ACTGGTCA, the “PBM E-score” value was -0.0482. ATTGAGAG was tested, and the “PBM E-score” value was -0.0651. With AGCGGTAC the “PBM E-score” value was -0.0536. With AAAGGATA the “PBM E-score” value was 0.21. In the case of AATCCCCT, the “PBM E-score” value was -0.234. For AATTAGTC, the “PBM E-score” value was 0.272. GCCCAACA was tested, and the “PBM E-score” value was -0.192. In the case of CAGTACAG, the “PBM E-score” value was 0.0817. In the case of CAGGCTTC, the “PBM E-score” value was -0.074. For CAGTGCGA, the “PBM E-score” value was -0.154. For CCGAAGCC, the “PBM E-score” value was -0.0272. AGCTGATG was tested, and the “PBM E-score” value was 0.0519. For CCGGACTC, the “PBM E-score” value was 0.188. For CAGTAGGG, the “PBM E-score” value was -0.235. With ACGTCCCC the “PBM E-score” value was -0.0571. AGTGTGAC was tested, and the “PBM E-score” value was -0.0163. In the case of ATAGTCGG, the “PBM E-score” value was -0.176. GGCGCGGA was tested, and the “PBM E-score” value was -0.198. With AGGGTACG the “PBM E-score” value was -0.183. For ATCCTAGA, the “PBM E-score” value was -0.0654. For ACAGTAGA, the “PBM E-score” value was 0.00665. In the case of AAGGCCTT, the “PBM E-score” value was -0.0741. GCATCCAA was tested, and the “PBM E-score” value was -0.225. For ATGCGACC, the “PBM E-score” value was 0.106. For CGACTACC, the “PBM E-score” value was -0.096. In the case of CTTGTTAC, the “PBM E-score” value was -0.0242. In the case of ATGGTTAA, the “PBM E-score” value was -0.0435. With AGCAAGTG the “PBM E-score” value was -0.101. With CATTCGGG the “PBM E-score” value was -0.0321. In the case of ATTGGAGG, the “PBM E-score” value was -0.2. In the case of CCGTCTCA, the “PBM E-score” value was -0.0674. In the case of GCGCGTCA, the “PBM E-score” value was -0.0313. In the case of ACTAGCTC, the “PBM E-score” value was -0.0442. CATGAAGG was tested, and the “PBM E-score” value was -0.0363. In the case of AATTTATA, the “PBM E-score” value was 0.233. CCGTCGCA was tested, and the “PBM E-score” value was -0.0683. With CAATACGG the “PBM E-score” value was -0.0563. For ACGCGACT, the “PBM E-score” value was -0.206. For GCGTGGTA, the “PBM E-score” value was 0.00084. For ACGAGGAA, the “PBM E-score” value was 0.101. GAATAAAC was tested, and the “PBM E-score” value was 0.134. ATGCCAAT was tested, and the “PBM E-score” value was -0.104. For AGCGTCCC, the “PBM E-score” value was -0.136. In the case of ATCACCTC, the “PBM E-score” value was -0.145. In the case of GTAGGGGA, the “PBM E-score” value was -0.237. With CATCTTAG the “PBM E-score” value was 0.107. For GTTTACCA, the “PBM E-score” value was 0.0626. In the case of ATCGATAG, the “PBM E-score” value was 0.1. In the case of ACTCCTGC, the “PBM E-score” value was -0.23. AAGCAGAG was tested, and the “PBM E-score” value was -0.0134. For ACGCGACA, the “PBM E-score” value was 0.256. For GCACTTTA, the “PBM E-score” value was 0.097. ATCTCGGG was tested, and the “PBM E-score” value was 0.0394. GCAGACCA was tested, and the “PBM E-score” value was -0.0683. For CGCAAAAA, the “PBM E-score” value was 0.173. In the case of CAAGAATC, the “PBM E-score” value was 0.153. In the case of TGCTGACA, the “PBM E-score” value was 0.125. In the case of ATCAACGA, the “PBM E-score” value was 0.14. With TATAATCA the “PBM E-score” value was 0.169. With CAGGACAC the “PBM E-score” value was 0.407. In the case of AAATATAT, the “PBM E-score” value was 0.306. With AACAACCG the “PBM E-score” value was 0.0783. In the case of GCACGAAA, the “PBM E-score” value was 0.126. In the case of GCGCTGTA, the “PBM E-score” value was 0.012. For ATTCGTGA, the “PBM E-score” value was 0.0237. In the case of ACATTGCG, the “PBM E-score” value was 0.201. With AACACCCA the “PBM E-score” value was -0.147. With ATCATATC the “PBM E-score” value was 0.233. With GACAATGA the “PBM E-score” value was 0.169. In the case of GAGTGCCA, the “PBM E-score” value was -0.239. With ATAGAGAT the “PBM E-score” value was 0.0237. In the case of GCAGCCGA, the “PBM E-score” value was -0.108. For GCCAAGTA, the “PBM E-score” value was -0.124. CGCTACTA was tested, and the “PBM E-score” value was -0.0231. In the case of GGGGATAA, the “PBM E-score” value was -0.0973. AAAGCAAC was tested, and the “PBM E-score” value was 0.103. AACAGTCG was tested, and the “PBM E-score” value was -0.033. With TCTAGCCA the “PBM E-score” value was -0.0361. With CCCTTCGC the “PBM E-score” value was -0.185. For ACTCCGGG, the “PBM E-score” value was 0.0267. With AAATGTAT the “PBM E-score” value was 0.28. GGTCTTCA was tested, and the “PBM E-score” value was -0.182. CAAGCCGA was tested, and the “PBM E-score” value was 0.107. AAGCACAG was tested, and the “PBM E-score” value was 0.0631. In the case of AACATTAT, the “PBM E-score” value was 0.104. With CAGATGTA the “PBM E-score” value was -0.0817. In the case of ACCCCACT, the “PBM E-score” value was -0.126. With CATATAAC the “PBM E-score” value was 0.147. CGGGTTCA was tested, and the “PBM E-score” value was -0.02. ACAGTATG was tested, and the “PBM E-score” value was 0.147. For AGTCCACA, the “PBM E-score” value was 0.17.

Source: the supplement of paper PMC3334620
